pIC50: −log10 of the molar value. The IC50 comes from the fitted curve, where viability falls to half of the control; a fit beyond the top or the lowest dose is shown as a bound at that dose. AUC is the area under the same curve over the 256-fold range up to the top dose, as a fraction; values near 1 show little effect. For part of these data: Where the top dose is marked as inferred, it comes from the curve model; the source does not state it.
Columns and labels:
Assay in all cases: Viability of human cancer cell lines after 72 h of drug (GDSC screen)
[1] = compound: CCCC[C@@H](C=O)NC(=O)[C@H](CC(C)C)NC(=O)[C@H](CC(C)C)NC(=O)OCc1ccccc1 [Z-LLNle-CHO]; settings: top dose 2.56 µM; top dose inferred
Description: (§1)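 Human cancer cell lines in 384-well plates, medium with 10% serum, drug for 72 h over a 256-fold dose range (nine 2-fold or five 4-fold steps up to the top dose). Adherent lines were fixed and stained with the nucleic acid dye Syto60, suspension lines read with resazurin; signal relative to control wells, capped at 0 and 100%. One two-parameter sigmoid per drug and line, fitted in a mixed model over all curves with the slope shared within a line.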

[2] = compound: COc1cc2c(Oc3ccc(NC(=O)C4(C(=O)Nc5ccc(F)cc5)CC4)cc3F)ccnc2cc1OCCCN1CCOCC1 [XL-880]; settings: top dose 5.12 µM; top dose inferred
Description: as §1

[3] = compound: Cn1nnc2c(C(N)=O)ncn2c1=O [Temozolomide]; settings: top dose 30 µM
Description: as §1

[4] = compound: CN1CCc2c(c3ccccc3n2Cc2ccc(C(=O)NO)cc2)C1 [Tubastatin A]; settings: top dose 20 µM
Description: as §1

[5] = compound: O=C(NOCC1CC1)c1ccc(F)c(F)c1Nc1ccc(I)cc1Cl [CI-1040]; settings: top dose 10 µM; top dose inferred
Description: as §1

[6] = compound: Oc1ccc2ccccc2c1SSc1c(O)ccc2ccccc12 [IPA-3]; settings: top dose 32 µM; top dose inferred
Description: as §1

[7] = compound: CCC(=O)N1CCN(c2ccc(-n3c(=O)ccc4cnc5ccc(-c6cnc7ccccc7c6)cc5c43)cc2C(F)(F)F)CC1 [JW-7-52-1]; settings: top dose 1.2 µM; top dose inferred
Description: as §1

[8] = compound: CN(C)C/C=C/C(=O)Nc1ccc(C(=O)Nc2cccc(Nc3nccc(-c4cccnc4)n3)c2)cc1 [ZG-10]; settings: top dose 10 µM; top dose inferred
Description: as §1

[9] = compound: CO[C@H]1C[C@@H]2CC[C@@H](C)[C@@](O)(O2)C(=O)C(=O)N2CCCC[C@H]2C(=O)O[C@H]([C@H](C)C[C@@H]2CC[C@@H](O)[C@H](OC)C2)CC(=O)[C@H](C)/C=C(\C)[C@@H](O)[C@@H](OC)C(=O)[C@H](C)C[C@H](C)/C=C/C=C/C=C/1C [Rapamycin]; settings: top dose 0.1 µM; top dose inferred
Description: as §1

| Cell Line | AUC [1] | pIC50 [1] | AUC [2] | pIC50 [2] | AUC [3] | pIC50 [3] | AUC [4] | pIC50 [4] | AUC [5] | pIC50 [5] | AUC [6] | pIC50 [6] | AUC [7] | pIC50 [7] | AUC [8] | pIC50 [8] | AUC [9] | pIC50 [9] |
| --- | --- | --- | --- | --- | --- | --- | --- | --- | --- | --- | --- | --- | --- | --- | --- | --- | --- | --- |
| NB13 (neuroblastoma, adherent) | 0.767 | 6.07 | 0.536 | 6.40 | 0.99 | < 4.52 | 0.887 | 4.75 | 0.925 | < 5.00 | 0.658 | 5.29 | 0.427 | 7.31 | 0.704 | 5.67 | 0.459 | 8.31 |
| ALL-SIL (T-cell leukaemia, suspension) | 0.783 | 6.03 | 0.28 | 7.07 | 0.957 | < 4.52 | 0.796 | 5.10 | 0.929 | < 5.00 | 0.578 | 5.50 | 0.526 | 7.06 | 0.516 | 6.16 | 0.866 | 7.16 |
| NCI-H1694 (small cell lung carcinoma, suspension) | 0.923 | < 5.59 | 0.76 | 5.74 | 0.962 | < 4.52 | 0.89 | < 4.70 | 0.956 | < 5.00 | 0.968 | < 4.49 | 0.802 | 6.23 | 0.605 | 5.91 | 0.941 | < 7.00 |
| GT3TKB (stomach, adherent) | 0.773 | 6.06 | 0.819 | 5.61 | 0.981 | < 4.52 | 0.984 | < 4.70 | 0.885 | 5.06 | 0.781 | 4.93 | 0.576 | 6.93 | 0.482 | 6.25 | 0.976 | < 7.00 |
| KELLY (neuroblastoma, adherent) | 0.767 | 6.06 | 0.478 | 6.55 | 0.988 | < 4.52 | 0.82 | 4.99 | 0.896 | < 5.00 | 0.873 | 4.59 | 0.754 | 6.43 | 0.799 | 5.37 | 0.948 | < 7.00 |
| KP-N-YN (neuroblastoma, adherent) | 0.982 | < 5.59 | 0.721 | 5.84 | 0.985 | < 4.52 | 0.958 | < 4.70 | 0.94 | < 5.00 | 0.957 | < 4.49 | 0.959 | < 5.92 | 0.573 | 6.00 | 0.953 | < 7.00 |
| ES8 (Ewing sarcoma, adherent) | 0.83 | 5.84 | 0.585 | 6.27 | 0.986 | < 4.52 | 0.886 | 4.71 | 0.929 | < 5.00 | 0.953 | < 4.49 | 0.328 | 7.59 | 0.548 | 6.08 | 0.879 | 7.05 |
| 8-MG-BA (glioma, adherent) | 0.779 | 6.01 | 0.649 | 6.09 | 0.925 | < 4.52 | 0.926 | < 4.70 | 0.775 | 5.43 | 0.902 | < 4.49 | 0.437 | 7.29 | 0.694 | 5.68 | 0.897 | < 7.00 |
| SJSA-1 (bone, adherent) | 0.851 | 5.63 | 0.662 | 6.02 | 0.982 | < 4.52 | 0.957 | < 4.70 | 0.855 | 5.01 | 0.827 | 4.64 | 0.444 | 7.29 | 0.837 | 5.10 | 0.76 | 7.40 |
| NCI-H1395 (lung adenocarcinoma, adherent) | 0.946 | < 5.59 | 0.665 | 5.97 | 0.974 | < 4.52 | 0.964 | < 4.70 | 0.971 | < 5.00 | 0.972 | < 4.49 | 0.841 | < 5.92 | 0.765 | 5.32 | 0.903 | < 7.00 |
| EW-1 (Ewing sarcoma, semi-adherent) | 0.821 | 5.88 | 0.601 | 6.23 | 0.988 | < 4.52 | 0.82 | 4.99 | 0.938 | < 5.00 | 0.702 | 5.16 | 0.219 | 7.91 | 0.663 | 5.77 | 0.353 | 8.60 |
| MMAC-SF (melanoma, adherent) | 0.696 | 6.23 | 0.986 | < 5.29 | 0.98 | < 4.52 | 0.93 | < 4.70 | 0.296 | 6.79 | 0.978 | < 4.49 | 0.318 | 7.64 | 0.73 | 5.53 | 0.901 | < 7.00 |
| NCI-H720 (lung carcinoid, suspension) | 0.976 | < 5.59 | 0.8 | 5.65 | 0.991 | < 4.52 | 0.978 | < 4.70 | 0.977 | < 5.00 | 0.979 | < 4.49 | 0.803 | 6.27 | 0.876 | 5.07 | 0.666 | 7.76 |
| TE-1 (oesophagus, adherent) | 0.757 | 5.96 | 0.801 | 5.48 | 0.98 | < 4.52 | 0.981 | < 4.70 | 0.883 | < 5.00 | 0.982 | < 4.49 | 0.658 | 6.63 | 0.738 | 5.44 | 0.831 | 7.05 |
